The assay concerns the target Genome polyprotein (dengue virus type 2) (UniProt P29990).
Where [1] appears, read: Thailand/16681/1984, Concentration 25.0 uM, Number of replicates 1.0.

The results in this text go back to ChEMBL document CHEMBL5606460, “ASAP - DENV-2 NS2B-NS3 protease fluorescence single point” (2024).

SMILES strings stand for the structures. Hit rate of the full screen: of about 2,000 compounds, about 110 (5.5%) showed an effect of 50% or more. The list shows a part of the results.

As to `CNC(=O)[C@H]1CCCN1S(=O)(=O)c1ccc(Oc2ccccc2Cl)cc1`, the inhibition (as a rule, the change of the read-out against control, counted positive when it falls) is, setting by setting: (Thailand/16681/1984, Concentration 49.5 uM, Number of replicates 2.0, Standard deviation 0.43290983719310167 %) -4.62%; (Thailand/16681/1984, Concentration 99.01 uM, Number of replicates 2.0, Standard deviation 1.120416310773355 %) -4.38%; (Thailand/16681/1984, Concentration 198.0 uM, Number of replicates 2.0, Standard deviation 0.24124704358981106 %) -3.59%.
As for `Cc1cnccc1NC(=O)c1ccccc1-c1nc(C(C)C)no1`, the inhibition is, setting by setting: (Thailand/16681/1984, Concentration 49.5 uM, Number of replicates 2.0, Standard deviation 1.5026989952869583 %) -0.789%; (Thailand/16681/1984, Concentration 99.01 uM, Number of replicates 2.0, Standard deviation 3.3296993188113557 %) -1.39%; (Thailand/16681/1984, Concentration 198.0 uM, Number of replicates 2.0, Standard deviation 2.70881841476973 %) -1.05%.
Consider `CCN(Cc1ccc(F)cc1)C(=O)C1CCN(c2ccc(C=O)cc2)CC1`, for which, under setting [1], the inhibition came to 13.8%.
The same measure, in the same setting: then `O=Cc1ccc(N2CCC(C(=O)Nc3ccc(F)nc3Br)CC2)cc1`, with 11.5%.
As to `CNC(=O)c1cc(Cl)c(OC)cc1NS(=O)(=O)c1ccc(Oc2ccccc2Cl)cc1`, the inhibition turned out to be 79.2% (Thailand/16681/1984, Concentration 49.5 uM, Number of replicates 2.0, Standard deviation 1.7443589304782063 %); 98.5% (Thailand/16681/1984, Concentration 99.01 uM, Number of replicates 2.0, Standard deviation 0.14348540542006383 %); 99.3% (Thailand/16681/1984, Concentration 198.0 uM, Number of replicates 2.0, Standard deviation 0.05118043543332502 %).
`Cc1cc(Cl)c2c(N)ccc(C)c2n1`: the inhibition (Thailand/16681/1984, Concentration 49.95 uM, Number of replicates 2.0, Standard deviation 5.268842944255752 %) turned out to be 34.7% and the inhibition (Thailand/16681/1984, Concentration 99.9 uM, Number of replicates 2.0, Standard deviation 0.5758298004935433 %) worked out at 94.7%.
As for `Cc1cc(CO)c2cccc(Cc3cccc(C(=O)Nc4cc(C)[nH]n4)c3)c2n1`, the inhibition (Thailand/16681/1984, Concentration 49.95 uM, Number of replicates 2.0, Standard deviation 1.9137700846759278 %) came to 0.711% and the inhibition (Thailand/16681/1984, Concentration 99.9 uM, Number of replicates 2.0, Standard deviation 1.69961162141419 %) came out at 3.33%.
On to `CCCC[C@H](NC(C)=O)C(=O)N[C@H](C(=O)Nc1cccc(C(N)=O)c1)c1ccc(OCc2ccccc2)cc1`, for which the inhibition reads like this: (Thailand/16681/1984, Concentration 49.5 uM, Number of replicates 2.0, Standard deviation 1.3015902921422546 %) -0.513%; (Thailand/16681/1984, Concentration 99.01 uM, Number of replicates 2.0, Standard deviation 0.5153915569037094 %) 3.33%; (Thailand/16681/1984, Concentration 198.0 uM, Number of replicates 2.0, Standard deviation 0.5711740910196359 %) 8.87%.
On to `CC(=O)N[C@@H](CCCN)C(=O)Nc1cccc2c(CO)cc(C)nc12`, for which the inhibition (Thailand/16681/1984, Concentration 99.9 uM, Number of replicates 2.0, Standard deviation 2.7664513641226787 %) turned out to be 9.57%.
Take `N#Cc1cc(F)c(NC(=O)C2CCN(c3ccc(C=O)cc3)CC2)cc1F`: the inhibition under setting [1] turned out to be 15.7%.
With `Cc1cc(CO)c2cccc(Cc3cccc(C(=O)NCc4c(C)noc4C)c3)c2n1`, the inhibition is 1.58% (Thailand/16681/1984, Concentration 49.95 uM, Number of replicates 2.0, Standard deviation 0.7006856245222158 %) and 5.27% (Thailand/16681/1984, Concentration 99.9 uM, Number of replicates 2.0, Standard deviation 0.008623919554905093 %).
Take `COc1cccc(F)c1CNC(=O)C1CCN(c2ccc(C=O)cc2)CC1`: under setting [1], the inhibition turned out to be 13.5%.
Consider `CCC(=O)Nc1cncc(C(=O)Nc2ccncc2C)c1`, for which the inhibition (Thailand/16681/1984, Concentration 49.5 uM, Number of replicates 2.0, Standard deviation 1.9596666118582906 %) was -3.96%; the inhibition (Thailand/16681/1984, Concentration 99.01 uM, Number of replicates 2.0, Standard deviation 0.9541367095668413 %) is -3.15%; the inhibition (Thailand/16681/1984, Concentration 198.0 uM, Number of replicates 2.0, Standard deviation 0.14992561245992247 %) was -2.19%.
For `CC(C)Cn1cccc(C(=O)N[C@H]2CCCNC2)c1=O`, the inhibition is -2.91% (Thailand/16681/1984, Concentration 49.5 uM, Number of replicates 2.0, Standard deviation 0.9832777149768497 %); -2.03% (Thailand/16681/1984, Concentration 99.01 uM, Number of replicates 2.0, Standard deviation 0.4214046747802948 %); -2.78% (Thailand/16681/1984, Concentration 198.0 uM, Number of replicates 2.0, Standard deviation 1.2642143615156725 %).
As to `CCN(CC)CCN(CCN(CC)CC)C(=O)C1CCN(c2ccc(C=O)cc2)CC1`, the inhibition under setting [1] came out at 11.4%.
Take `Cc1ncoc1CN1CCC(c2c[nH]c3cccnc23)CC1`: the inhibition reads like this: (Thailand/16681/1984, Concentration 49.5 uM, Number of replicates 2.0, Standard deviation 1.1442724807017337 %) 0.186%; (Thailand/16681/1984, Concentration 99.01 uM, Number of replicates 2.0, Standard deviation 0.7941869328039364 %) 0.045%; (Thailand/16681/1984, Concentration 198.0 uM, Number of replicates 2.0, Standard deviation 1.585075116068622 %) 0.349%.
In the case of `O=Cc1ccc(N2CCC(C(=O)NC(c3ccccc3)(c3ccccc3)c3ccccc3)CC2)cc1`, the inhibition under setting [1] was 21.2%.
Same read-out and setting: the value for `O=Cc1ccc(N2CCC(C(=O)Nc3cnc(Br)c(Cl)n3)CC2)cc1` was 10.2%.
Same read-out and setting: the value for `O=Cc1ccc(N2CCC(C(=O)Nc3ccc(OCc4ccccc4)cc3)CC2)cc1` was 2.32%; that for `O=Cc1ccc(N2CCC(C(=O)N3CCCN(c4ccc(C(F)(F)F)cn4)CC3)CC2)cc1` was 9.22%.
As for `CCCCCC(=O)N[C@H](C(=O)NCc1cccc(CN)c1)C1CCCCC1`, the inhibition runs as follows: (Thailand/16681/1984, Concentration 49.5 uM, Number of replicates 2.0, Standard deviation 0.5123754441305728 %) -1.52%; (Thailand/16681/1984, Concentration 99.01 uM, Number of replicates 2.0, Standard deviation 0.1437325545397317 %) -1.37%; (Thailand/16681/1984, Concentration 198.0 uM, Number of replicates 2.0, Standard deviation 1.0834855562341692 %) 16%.
As to `COc1ccc(CNC(=O)C2CCN(c3ccc(C=O)cc3)CC2)cc1F`, under setting [1], the inhibition stood at 12.5%.
As for `CC(C)CC(=O)N1CCC(NC(=O)C2CCN(c3ccc(C=O)cc3)CC2)CC1`, the inhibition under setting [1] was determined as 14.2%.
Turning to `CNC(=O)c1cc(Cl)ccc1NS(=O)(=O)c1cccnc1`, the inhibition is -2.47% (Thailand/16681/1984, Concentration 49.5 uM, Number of replicates 2.0, Standard deviation 0.5015651989560136 %); -1.48% (Thailand/16681/1984, Concentration 99.01 uM, Number of replicates 2.0, Standard deviation 1.4946832336826412 %); 0.141% (Thailand/16681/1984, Concentration 198.0 uM, Number of replicates 2.0, Standard deviation 0.31848435191486724 %).
As to `O=Cc1ccc(N2CCC(C(=O)N(Cc3ccco3)Cc3cccs3)CC2)cc1`, under setting [1], the inhibition stood at 11%.
Consider `Cc1cc(CO)c2cccc(Cc3ccccc3C(=O)NCc3ccc(C(N)=O)cc3)c2n1`, for which the inhibition (Thailand/16681/1984, Concentration 49.95 uM, Number of replicates 2.0, Standard deviation 0.2888981019288338 %) was found to be 2.07% and the inhibition (Thailand/16681/1984, Concentration 99.9 uM, Number of replicates 2.0, Standard deviation 0.18972386998439544 %) came to 5.84%.
As to `CNC(=O)C1CCC(Nc2nc(Cl)cc3c(F)cccc23)CC1` (stereo not given), the inhibition (Thailand/16681/1984, Concentration 49.95 uM, Number of replicates 2.0, Standard deviation 5.365912193998162 %) is -9.93%.
For the molecule `Cc1cc(CO)c2cccc(NC(=O)NCc3ccc(N)cc3)c2n1`, the inhibition is, setting by setting: (Thailand/16681/1984, Concentration 49.95 uM, Number of replicates 2.0, Standard deviation 1.081774899946809 %) 4.55%; (Thailand/16681/1984, Concentration 99.9 uM, Number of replicates 2.0, Standard deviation 2.6483447678271466 %) 14.1%.
On to `CN(C)CC(=O)NC1(C)CCN(C(=O)c2ccc3[nH]ncc3c2)CC1`, for which the inhibition runs as follows: (Thailand/16681/1984, Concentration 49.5 uM, Number of replicates 2.0, Standard deviation 0.040508516215578556 %) -4.26%; (Thailand/16681/1984, Concentration 99.01 uM, Number of replicates 2.0, Standard deviation 0.04956975147063269 %) -4.6%; (Thailand/16681/1984, Concentration 198.0 uM, Number of replicates 2.0, Standard deviation 0.28569224404370114 %) -4.56%.
On to `N#Cc1ccc(NC(=O)C2CCN(c3ccc(C=O)cc3)CC2)cc1Br`, for which the inhibition under setting [1] was 12.7%.
